{"source": "paper PMC4926073", "about": "“Absorption and Transport of Sea Cucumber Saponins from Apostichopus japonicus” (Marine Drugs, 2016)", "details": "for Short-Term Stability, Accuracy (%) / Long-Term Stability, Accuracy (%) / Freeze-Thaw Stability, Accuracy (%): perfusate; for Short-Term Stability, Accuracy (%): ambient temperature 24 h; for Long-Term Stability, Accuracy (%): ambient temperature 5 d", "note": "Read-outs that look alike come from different tables or passages of the source."}
{"compound": "C=C(C)CCCC1(C)OC(=O)C23CC=C4C(CCC5C4(C)CCC(OC4OCC(OC6OC(CO)C(O)C(OC7OC(CO)C(O)C(OC)C7O)C6O)C(O)C4OC4OC(C)C(OC6OCC(O)C(OC7OC(CO)C(O)C(OC)C7O)C6O)C(O)C4O)C5(C)C)C2(C)CC(=O)C13", "note": "(stereo not shown) [Holotoxin A1]", "values": [{"measurement": "Short-Term Stability, Accuracy (%)", "setting": "nominal conc. 100.00 ng/mL", "value": 92.7, "unit": "%"}, {"measurement": "Long-Term Stability, Accuracy (%)", "setting": "nominal conc. 100.00 ng/mL", "value": 92.4, "unit": "%"}, {"measurement": "Freeze-Thaw Stability, Accuracy (%)", "setting": "nominal conc. 100.00 ng/mL, frozen at −20 °C 24 h, thawed at ambient temperature", "value": 88.2, "unit": "%"}, {"measurement": "Freeze-Thaw Stability, Accuracy (%)", "setting": "nominal conc. 1000.00 ng/mL", "value": 92.1, "unit": "%"}, {"measurement": "Short-Term Stability, Accuracy (%)", "setting": "nominal conc. 1000.00 ng/mL", "value": 90.9, "unit": "%"}, {"measurement": "Long-Term Stability, Accuracy (%)", "setting": "nominal conc. 1000.00 ng/mL", "value": 91.3, "unit": "%"}, {"measurement": "Freeze-Thaw Stability, Accuracy (%)", "setting": "nominal conc. 5000.00 ng/mL", "value": 94.3, "unit": "%"}, {"measurement": "Short-Term Stability, Accuracy (%)", "setting": "nominal conc. 5000.00 ng/mL", "value": 93.8, "unit": "%"}, {"measurement": "Long-Term Stability, Accuracy (%)", "setting": "nominal conc. 5000.00 ng/mL", "value": 94.8, "unit": "%"}, {"measurement": "stability in perfusate under three conditions", "setting": "range over freeze-thaw, short-term, long-term and both compounds", "value": "88.2%–94.8"}]}
